± gives the standard deviation of the averaged measurements. Some of the results follow.
Tested on: PfAP2-LT AP2 domain (GST-tagged)
Experiment: gcPBM binding intensity (ln(normalized median fluorescence intensity)); higher = stronger DNA binding
In short: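 GST-fused DNA-binding domains of P. falciparum, expressed in E. coli, were applied at about 25 μg on average for 1 h to an Agilent 4 × 180k array of primer-extended double-stranded 36-bp intergenic genomic probes and negative controls. Binding intensity is the highest Masliner-normalised natural-log median intensity across replicate spots of either probe orientation, measured with Alexa488 anti-GST antibody and a 488 nm scan.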

“ATAAATTTTTTATGAACACACAAATACACCCACTCA [CACACA_site5465]” and “ATAACTTTCTATACATGTACACATATATGGTATTTT [XGTACX_site7535]” are within error of each other in “gcPBM binding intensity (ln)” value: 9.31 ± 0.27 for the first, 9.14 ± 0.38 for the second.

“TGTATATATTTTAATAGTACTCATATATATATATAT [XGTACX_site7216]” and “ATTGTGTTGACGGGTGACCCTTCCAGAGAAATAGAA [CACACA_negctrl_site1362]” are within error of each other in “gcPBM binding intensity (ln)” value: 9.07 ± 0.11 for the first, 8.63 ± 0.51 for the second.

Going from “TTTTTTTTAATGAGAAGTACGGTCTTTCAATGTCTT [XGTACX_site6773]” to “ATATAAATAAATATATGTACACACACAAATATATAC [XGTACX_site3950]”, the “gcPBM binding intensity (ln)” value rises from 8.49 ± 0.35 to 9.42 ± 0.23.

“TCTTTCTTATTTTAATGATATTTATTCATTCCAGTT [CACACA_negctrl_site1679]” and “AGAATTATTCTAAAAACACACAATACAAAAGTGCAT [CACACA_site3004]” are within error of each other in “gcPBM binding intensity (ln)” value: 8.91 ± 0.57 for the first, 8.89 ± 0.46 for the second.

ACTTTTACACTTTGATTGCACTACTAAACCAGTTCA and “AATACTAAAACCCATACACACACATATATATAGTAC [CACACA_site9041]” are within error of each other in “gcPBM binding intensity (ln)” value: 8.96 ± 0.52 for the first, 9.68 ± 0.3 for the second.

“ATAAAAAAAAATATTTGTACACATATTTATATATTA [XGTACX_site8147]” and “ATATGTTTTTTTTTTTTTTTTTAATTTGTCATAAAT [CACACA_negctrl_site1208]” are within error of each other in “gcPBM binding intensity (ln)” value: 8.54 ± 0.47 for the first, 8.57 ± 0.45 for the second.

“TCTTTCAATATTAATGCATGTTAATAATAAATTTTA [TGCATGCA_site448]” and “TGAACAATATATAATAGTACATATTTATTTTTTTCT [XGTACX_site4256]” are within error of each other in “gcPBM binding intensity (ln)” value: 8.2 ± 0.35 for the first, 8.57 ± 0.48 for the second.

“TAAAGATGAAATATCACACATATATAAATATATAAA [CACACA_site4580]” and “CAATGTTAACATATTACACACATATGTATTTATAAT [CACACA_site5512]” are within error of each other in “gcPBM binding intensity (ln)” value: 8.75 ± 0.41 for the first, 9.04 ± 0.3 for the second.

“GCATATATTATATATTTATTTATTTTTTTTTTTTAA [GTGCAC_negctrl_site193]” and “ATATATATGAATACATGTACGTATTTGTCTATGTAT [XGTACX_site8306]” are within error of each other in “gcPBM binding intensity (ln)” value: 8.41 ± 0.51 for the first, 9.09 ± 0.45 for the second.

“AAAATATTTATATTTACACACACATAATACATATAT [CACACA_site32]” and “GTGTACAGTTTTTGCACACATATAAATAAAAAAAAG [CACACA_site3599]” are within error of each other in “gcPBM binding intensity (ln)” value: 9.35 ± 0.35 for the first, 9.28 ± 0.28 for the second.

“TAAATTACATGAAATTGTACATGAATATTAAATATA [XGTACX_site3909]” and “TTCGTTATAATTGAATTTACAATATGCTTTATAATG [XGTACX_negctrl_site238]” are within error of each other in “gcPBM binding intensity (ln)” value: 8.4 ± 0.53 for the first, 8.61 ± 0.38 for the second.

“ATATATACAAAGGATTAACACACATATTATTATATA [CACACA_site8563]” and “ATGTTACTCAGACACACACACATAAAAAAACAAAAA [CACACA_site3249]” are within error of each other in “gcPBM binding intensity (ln)” value: 8.88 ± 0.52 for the first, 9.63 ± 0.38 for the second.

“TGTGTTAATATATGAAGTACACAATACACACTAATT [XGTACX_site5469]” and “AAATAAAATTATAATACATGCATACATACATATATA [TGCATGCA_site69]” are within error of each other in “gcPBM binding intensity (ln)” value: 9.11 ± 0.25 for the first, 8.64 ± 0.43 for the second.

“TATAAATACATACGTACACACAAATATTAAAATATA [CACACA_site5129]” and “TCATATGTTAAATGATGTACATTTAATATAAATAAA [XGTACX_site900]” are within error of each other in “gcPBM binding intensity (ln)” value: 9.06 ± 0.41 for the first, 8.5 ± 0.42 for the second.

Compared with “AAAAAAAACATCCTCACACATATATATATATATATA [CACACA_site5166]”, “TAATATCATTTATGGGGTACCTCCTATTCTTATTTA [XGTACX_site1839]” is lower in “gcPBM binding intensity (ln)” value: 9.885 ± 0.021 for the first, 8.8 ± 0.55 for the second.

“CGAACTGCACTTTTTAGTACTTAATAATTATTTTTT [XGTACX_site2446]” and “ATTAATATGAATAAAACACACATATATAATTTGTAA [CACACA_site1929]” are within error of each other in “gcPBM binding intensity (ln)” value: 8.73 ± 0.51 for the first, 8.87 ± 0.41 for the second.

“AAAAAAAAAAAGAAATGTACATGAATATTTTAAATG [XGTACX_site4069]” and “TGCAGTCTGGAGAAGAGTACACAGTATCTGGTAACA [XGTACX_site2037]” are within error of each other in “gcPBM binding intensity (ln)” value: 8.57 ± 0.64 for the first, 8.78 ± 0.47 for the second.

“TATATATTCATATGTTGTACATAAATACAAATAAGA [XGTACX_site5602]” and “AAAGGTAAATGTAAATAAATAAATAATAAATATATA [GTGCAC_negctrl_site681]” are within error of each other in “gcPBM binding intensity (ln)” value: 8.69 ± 0.44 for the first, 8.72 ± 0.53 for the second.

“AACAGAATAATACTAAATGAACGATTTCTCTTTATG [GTGCAC_negctrl_site376]” and “TATACATGTTATGTACATCTAATCACACGTGCAATA [CACACA_negctrl_site1267]” are within error of each other in “gcPBM binding intensity (ln)” value: 8.6 ± 0.51 for the first, 8.96 ± 0.4 for the second.

“TCTTTTTACACCTCTTACATAAAACAAAATAAGGGG [XGTACX_negctrl_site12]” and “TTGTAAATTTACATTTGTACATAAATATATTAATAT [XGTACX_site3969]” are within error of each other in “gcPBM binding intensity (ln)” value: 8.85 ± 0.37 for the first, 8.6 ± 0.49 for the second.

Going from “TGTATGTTTGGGTGCACACATAAATATTATATATAG [CACACA_site3397]” to “ATATATATAAAACACACACACACATGGTTTAAAACT [CACACA_site4219]”, the “gcPBM binding intensity (ln)” value rises from 9.01 ± 0.47 to 9.72 ± 0.18.

First: CATGCTACATCTTATTGTACTTATCTAATGTTAGTA [XGTACX_site1863]
Second: AGGCAATATTATATATATATATATATATATATATAT [CACACA_negctrl_site826]
The “gcPBM binding intensity (ln)” value of the first is lower: 8.93 ± 0.34 for the first, 9.82 ± 0.25 for the second.

With GTATGATGCATAAGAGTGCATAAGGATATTTCTTCA the “gcPBM binding intensity (ln)” value was 8.84 ± 0.5.

Source: the supplement of paper PMC11417369
